Assay results as given in patent US10329277B2, “N-(2-((2-(dimethylamino)ethyl)(methyl)amino)-4-methoxy-5-((4-(3-methyl-2-OXO-2,3-dihydro-1h-benzo[d]imidazol-1-yl)pyrimidin-2-yl)amino)phenyl)acrylamide hydrochloride as an inhibitor of epidermal growth factor receptor activity” (CHIA TAI TIANQING PHARMACEUTICAL GROUP CO., LTD., priority 2015, dated 2019).
Structures can show the parent of a compound that is named as a salt.

Tests used:
EGFR-L858R/T790M(DM) [1] = biological target: T1, EGFR-L858R/T790M(DM) (Homo sapiens, UniProt P00533, L858R/T790M); experiment: biochemical
EGFR-L858R/T790M(DM) [2] = biological target: T1, EGFR-L858R/T790M(DM); conditions: ratio of enzymatic IC50 EGFR(WT) to EGFR-L858R/T790M(DM)

Compound	IC50 (EGFR-L858R/T790M(DM) [1])	WT/DM (EGFR-L858R/T790M(DM) [2])
C=CC(=O)Nc1cc(Nc2nccc(-n3c(=O)n(C)c4ccccc43)n2)c(OC)cc1N(C)CCN(C)C [Example 1, N-(2-((2-(dimethylamino)ethyl)(methyl)amino)-4-methoxy-5-(4-(3-methyl-2-oxo-2,3-dihydro-1H-benzo[d]imidazol-1-yl)pyrimidin-2-ylamino)phenyl)acrylamide Hydrochloride]	0.72 nM	12.6
C=CC(=O)Nc1cc(Nc2nccc(-n3c(=O)oc4ccccc43)n2)c(OC)cc1N(C)CCN(C)C [Example 5, N-(2-((2-(dimethylamino)ethyl)(methyl)amino)-4-methoxy-5-(4-(2-oxobenzo[d]oxazol-3(2H)-yl)pyrimidin-2-ylamino)phenyl) acrylamide Hydrochloride]	2.27 nM	19.8
C=CC(=O)Nc1cc(Nc2ncc(Cl)c(-n3c(=O)[nH]c4ccccc43)n2)c(OC)cc1N(C)CCN(C)C [Example 4, N-(5-(5-chloro-4-(2-oxo-2,3-dihydro-1H-benzo[d]imidazol-1-yl)pyrimidin-2-ylamino)-2-((2-(dimethylamino)ethyl)(methyl)amino)-4-methoxyphenyl) acrylamide Hydrochloride]	1.15 nM	17.9
C=CC(=O)Nc1cc(Nc2nccc(-n3c(=O)[nH]c4ccccc43)n2)c(OC)cc1N(C)CCN(C)C [Example 2, N-(2-((2-(dimethylamino)ethyl)(methyl)amino)-4-methoxy-5-(4-(2-oxo-2,3-dihydrobenzo[d]imidazol-1-yl)pyrimidin-2-ylamino)phenyl)acrylamide Hydrochloride]	0.43 nM	6.0
COC/C=C/C(=O)Nc1cc(Nc2nccc(-n3c(=O)n(C)c4ccccc43)n2)c(OC)cc1N(C)CCN(C)C [Example 7, (E)-N-(2-((2-(dimethylamino)ethyl)(methyl)amino)-4-methoxy-5-(4-(3-methyl-2-oxo-2,3-dihydro-1H-benzo[d]imidazol-1-yl)pyrimidin-2-ylamino)phenyl)-4-methoxybut-2-enamide]	4.12 nM	39.7
C=CC(=O)Nc1cc(Nc2ncc(Cl)c(-n3c(=O)n(C)c4ccccc43)n2)c(OC)cc1N(C)CCN(C)C [Example 3, N-(5-(5-chloro-4-(3-methyl-2-oxo-2,3-dihydro-1H-benzo[d]imidazol-1-yl)pyrimidin-2-ylamino)-2-((2-(dimethylamino)ethyl)(methyl)amino)-4-methoxyphenyl) acrylamide Hydrochloride]	4.61 nM	42.6

Further lines, results first:

IC50 (EGFR-L858R/T790M(DM) [1])	WT/DM (EGFR-L858R/T790M(DM) [2])	Compound
0.5 nM	10.5	C=CC(=O)Nc1cc(Nc2nccc(-n3c(=O)n(C)c4ccccc43)n2)c(OC)cc1N(C)CCNC [Example 12, N-(4-methoxy-2-(methyl(2-(methylamino)ethyl)amino)-5-(4-(3-methyl-2-oxo-2,3-dihydrobenzo[d]imidazol-1-yl)pyrimidin-2-ylamino)phenyl)acrylamide Hydrochloride]
0.58 nM	18.4	C=CC(=O)Nc1cc(Nc2nccc(-n3c(=O)n(C)c4cc(F)ccc43)n2)c(OC)cc1N(C)CCN(C)C [Example 10, N-(2-((2-(dimethylamino)ethyl)(methyl)amino)-5-(4-(5-fluoro-3-methyl-2-oxo-2,3-dihydrobenzo[d]imidazol-1-yl)pyrimidin-2-ylamino)-4-methoxyphenyl) acrylamide Hydrochloride]
0.67 nM	4.2	C=CC(=O)Nc1cc(Nc2nccc(-n3c(=O)[nH]c4cc(F)ccc43)n2)c(OC)cc1N(C)CCN(C)C [Example 11, N-(2-((2-(dimethylamino)ethyl)(methyl)amino)-5-(4-(5-fluoro-2-oxo-2,3-dihydrobenzo[d]imidazol-1-yl)pyrimidin-2-ylamino)-4-methoxyphenyl)acrylamide Hydrochloride]
0.64 nM	6.1	C=CC(=O)Nc1cc(Nc2nccc(-n3c(=O)[nH]c4cc(C)ccc43)n2)c(OC)cc1N(C)CCN(C)C [Example 9, N-(2-((2-(dimethylamino)ethyl)(methyl)amino)-4-methoxy-5-(4-(5-methyl-2-oxo-2,3-dihydrobenzo[d]imidazol-1-yl)pyrimidin-2-ylamino)phenyl)acrylamide Hydrochloride]
